Reference: the supplement of paper PMC3334620
Over roughly 33,000 sequences, “E-score (-0.5 to 0.5)” has its median near -0.012; the highest 2% begin near 0.27. This is one part of the list.

These sequences were tested against T1, Vhr1 (UniProt P40522) (assay: PBM E-score (8-mer binding enrichment) (E-score (-0.5 to 0.5)); higher = stronger / more preferred TF binding; most listed sequences are background and not binding sites). Conditions: protein concentration: 200 nM; construct: GST-full length.
T1 sequence: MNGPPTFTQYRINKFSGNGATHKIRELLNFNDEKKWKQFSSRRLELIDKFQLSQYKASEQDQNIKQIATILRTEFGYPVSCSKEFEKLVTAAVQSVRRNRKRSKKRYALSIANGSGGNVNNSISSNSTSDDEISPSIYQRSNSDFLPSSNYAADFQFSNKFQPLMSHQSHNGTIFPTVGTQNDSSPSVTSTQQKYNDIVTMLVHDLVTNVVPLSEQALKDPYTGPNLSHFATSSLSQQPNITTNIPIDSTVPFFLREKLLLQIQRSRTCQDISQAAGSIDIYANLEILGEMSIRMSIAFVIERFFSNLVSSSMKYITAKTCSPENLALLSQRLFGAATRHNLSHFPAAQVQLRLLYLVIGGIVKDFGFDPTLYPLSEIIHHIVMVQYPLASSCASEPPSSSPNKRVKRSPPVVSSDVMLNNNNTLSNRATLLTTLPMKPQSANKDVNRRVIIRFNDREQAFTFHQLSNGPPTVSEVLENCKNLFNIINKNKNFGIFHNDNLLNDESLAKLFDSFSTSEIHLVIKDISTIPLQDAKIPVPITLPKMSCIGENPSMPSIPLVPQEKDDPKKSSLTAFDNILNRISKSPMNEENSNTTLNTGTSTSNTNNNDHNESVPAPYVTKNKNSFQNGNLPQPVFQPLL
Summary of the method: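 Bound GST-tagged yeast transcription factors, applied at about 100-200 nM to double-stranded universal all-10-mer Agilent arrays, were detected with fluorescent anti-GST. Scans were normalised with masliner. A modified Wilcoxon-Mann-Whitney statistic, the E-score, was assigned to each ungapped eight-base word pooled with its reverse complement by the Universal PBM Analysis Suite.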

Sequence | PBM E-score
ACTGGTAT | 0.111
ACCGGGTC | 0.143
CTACGATC | -0.0877
ACATTTAC | -0.0363
CGGCGTAG | -0.0267
ACAATTGC | -0.118
CAGATGCG | -0.132
TTCGGCAA | -0.0215
GTTTCATA | 0.0705
CGCAACGA | 0.093
ATTTCAGA | -0.0987
AACTTCGG | -0.0629
CGTTCCAA | -0.0737
TAAGAAAA | -0.28
GTTGAACA | -0.269
GGTCCCCA | -0.136
AGCCCTCA | -0.172
GCCCGTAC | -0.118
CCACAAAC | 0.00235
CTCAAAAA | -0.0881
AAACTAGG | -0.0415
AGATGCTG | -0.0294
GCGTGCCC | 0.0244
GAAAGGTA | -0.212
CTATCAAA | -0.0333

Sequence | PBM E-score
CTCCGGGC | 0.0352
CCCCGAGC | 0.0825
TCAAGCCA | -0.00986
GCAGCTGC | -0.232
TCGGCGCA | 0.11
AAAAACCC | -0.173
CTAGTGTA | 0.114
GATGCTCC | -0.126
CCTACGAG | 0.142
CCTAGAGA | -0.202
GGGCGCCA | 0.115
CCACCCTA | 0.0578
CCATTTCG | -0.134
GACTCGGA | 0.278
CTGTCCAA | -0.122
GGTCTGAC | 0.226
CTTACTTC | -0.125
CGAAAGTA | -0.149
CACCTGGA | -0.0626
TCTTGTAA | 0.0547
CTCGGTTA | -0.0784
ACGGAAGG | -0.1
CCGATTAG | 0.0891
AACATAAC | 0.078
ATCCTGGG | -0.0716

Sequence | PBM E-score
CCATTTAG | -0.0927
ACCGCGCC | -0.0598
AGTGAACC | 0.082
CACGAAAG | -0.0996
GTCTTAAA | -0.217
CATACGTC | -0.0442
GACTGTCA | 0.0521
CAAGGGAA | -0.169
CTTTAATC | -0.138
CAGAAGTC | -0.0504
TATAGCAA | 0.00432
AACCTTGA | -0.0303
CGCCGGAA | -0.0762
ACCGGCCT | -0.0394
CTGTCCCC | -0.0993
GACACCAA | 0.108
GGCGTCCC | -0.191
ATAATCTA | -0.0617
CGCCCTAA | -0.247
CAGCCAGC | 0.0302
ATAAGACC | -0.184
CAGAGCAA | -0.0116
CCGGAACC | 0.195
CTGGTGCA | 0.0228
GATTATAC | 0.213

Sequence | PBM E-score
AAGCCAGG | -0.0848
ATCCCCGC | 0.129
CTACTCGC | 0.03
CCGACCAG | 0.0371
TGCTGCAA | 0.0653
ATAGGTGA | 0.0863
AAATCTAT | -0.139
GCCCATAC | 0.138
TCCCCCAA | -0.3
TGGCGGAA | -0.188
ACCGGAAA | -0.212
GGATTTAA | -0.111
CTGTGATC | -0.00833
ACAAGCAA | 0.00548
AAGGACGG | -0.125
CCGTTCCG | -0.0154
CGATGTAC | 0.111
CTAAGCGC | -0.212
CAGCCTGC | -0.0482
CAGATTAA | 0.067
GTCTGAAA | -0.0548
AACCGTAA | -0.21
ACCCCAGA | -0.0498
AGCTGCCG | -0.00013
GTCTACAA | -0.0911

Sequence | PBM E-score
AGACCCAG | 0.0353
ACCCGCCA | 0.115
CTCGGACC | 0.0226
GAATAATC | 0.115
CCCACGGA | -0.164
AGATTAAT | 0.0836
AAGGGTGT | -0.0257
ATGGTACG | 0.0914
GGTCTCAC | -0.0703
AATACGGA | -0.0132
GGCGCCTA | -0.145
CTTTGTTC | 0.00428
AACGAGAG | 0.0134
TAGAGCTA | -0.166
CATGATAG | 0.148
CAAAGCGA | 0.00287
CCTTGCTC | -0.0656
CGAACTTC | -0.274
AATTCGTG | -0.026
ATGCACAC | 0.0667
ATAAAATC | 0.0544
ACGAGGTG | -0.00893
AGTCACTA | 0.366
CCCCCATA | -0.274
GCCCGTTA | -0.324

Sequence | PBM E-score
CAAGATGC | 0.0821
ATATGCTG | 0.0731
GCAATACA | 0.242
CAAGTATC | 0.016
ACATCGCA | 0.0595
CATCAGGC | 0.0611
GCTTCGTA | -0.112
ATAGGTTG | -0.0251
ACCACGCT | 0.0488
GAGAGTAA | 0.0595
ACAATGTA | 0.0623
TCACATAA | 0.0625
GCCCGAGC | 0.113
ATCGTTAC | 0.0466
GCCCCTAA | -0.114
AGCACGTA | 0.093
CAGTGTGG | -0.0544
CAAACTGC | -0.00074
ACGCGTAC | -0.00383
GATACGCC | 0.127
CGCATTAG | -0.0348
CTTACGAC | -0.222
AAAGTCAG | 0.119
AAAACAAG | -0.0719
CGTGCGAG | 0.154

Sequence | PBM E-score
ACGGGCGC | 0.0622
AAGCGTAT | -0.168
AATTAACT | -0.0839
AAGCGCTA | -0.0706
CAGCCTAC | 0.0688
CCTCGCCG | -0.118
CGCGGGCA | 0.287
CTCTACGC | -0.15
CGGGCCAG | 0.0138
CTTGGGGC | 0.0928
CGTAAGCA | -0.222
CAGTCCAG | -0.172
AGATAAAC | -0.0729
ACTGGACC | -0.0493
GAATGTGC | -0.117
ATCATGAA | 0.118
CAGCGCAA | 0.0144
AAGACATG | -0.0734
GGCCCAAA | -0.186
GACCCCAA | -0.0381
AGATGTTG | -0.0539
ATGAGGGA | 0.027
AGTTTAAA | -0.132
AGGTCGGG | -0.0253
GACGCTCA | -0.165

Sequence | PBM E-score
GCAGAAGC | -0.128
ACAGTTAT | 0.0825
AGCTAGCA | -0.119
AGCCTCTC | -0.247
CCACACCG | 0.185
CCTGCGAC | -0.0485
CAGCAGCG | -0.0154
AATGCAGT | 0.0713
CCATGTGC | 0.161
AGCCAGGG | 0.00759
ACTGGATG | -0.0104
AGTTATGG | -0.0297
CCCTTCAG | 0.055
ATCTCAGA | 0.00554
CACCGATA | 0.15
CCGGTGCA | -0.108
AGCTGTAA | -0.0737
CCGGCAGG | -0.223
CCTTTGAG | -0.241
CTCATATC | 0.203
TATGGTCA | 0.0512
ATGATGCC | 0.108
ATTCACGC | 0.117
GACTACGA | 0.208
GAAGCCCA | -0.0644

Sequence | PBM E-score
GATGTACC | 0.16
AACCGGGC | -0.0416
CAGTTTGC | 0.051
CATAAAGG | -0.0919
CCTCCTAA | -0.27
CAGTCTCC | 0.141
ATTGAGCC | 0.137
TATAAGGA | 0.149
TAAGTAGA | -0.0454
CACCTAAG | 0.0719
GATAGACC | -0.0134
ATAAAAAC | -0.227
CACCAGGC | 0.0955
TACGTAGA | -0.167
ACAGCTCA | 0.0391
CATTCCGC | -0.038
ATAGACAG | -0.0433
GGATATAC | 0.0747
CAGCTCAA | 0.0751
